From PubChem BioAssay AID1508642 (National Center for Advancing Translational Sciences (NCATS), 2021)
In all, about 43,000 compounds went through this assay and about 200 (0.47%) were called active. Inconclusive results (about 12%) are left out. Calls follow the shape of the dose curve; as a rule, active = well fitted cell-killing curve with a large enough effect; inconclusive = small, poorly fitted or top-dose-only effect, or effect the other way; inactive = flat fitted curve, though single readings scatter. The list shows a part of the results.

Assay: Cell viability qHTS assay in S16 Pmp22-F2sN cells; also: nearly all actives have a fitted effect of over 65% in size
Conditions: S16 Pmp22-F2sN Schwann cells viability, CellTiter-Glo, 24 h; series mostly up to 57.5 µM; activity change, negative = cytotoxicity: at the top concentration
Summary of the method: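 Used to flag compounds lowering reporter output through toxicity, this quantitative HTS measures ATP-based CellTiter-Glo luminescence in S16 Pmp22-F2sN Schwann cells after 24 h compound exposure at 37C.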
% is scaled to controls: 0 for no effect and ±100 for the full control effect.

| Structure (SMILES) | activity change, negative = cytotoxicity |
| --- | --- |
| CCCCCn1c(=O)[nH]c2cc(C(=O)Nc3cc(C)cc(C)c3)ccc2c1=O | inactive: -0.409% |
| CN(C)S(=O)(=O)N(CC(=O)NCCSCc1ccccc1)c1ccccc1 | inactive: 18.1% |
| Cc1ccc(C(=O)N2c3ccc(C)cc3C(C)(c3ccccc3)CC2(C)C)cc1 (centres undefined) | inactive: 4.82% |
| CCc1ccc(C(=O)c2cn(CC(=O)Nc3cccc(OC)c3)c3ccc(OC)cc3c2=O)cc1 | inactive: 2.05% |
| COc1ccc(OCC(=O)NCc2ccc3c(c2)CCN3C(=O)c2ccccc2)cc1 | inactive: -22.1% |
| O=C(c1cc2ccccc2oc1=O)N1CCN(c2ccc(Cl)cc2)CC1 | inactive: 25.9% |
| O=C(NCCc1ccccc1)c1cnc2sc(N3CCCCCC3)nn2c1=O | inactive: 22.1% |
| Cc1cc2oc(C(=O)Nc3ccc(S(N)(=O)=O)cc3)cc(=O)c2cc1C | inactive: 2.48% |
| CCc1cccc(NC(=O)CN2C(=O)COc3ccc(S(=O)(=O)Nc4ccccc4)cc32)c1 | inactive: 3.49% |
| Cc1ccc(CNC(=O)c2ccc3c(c2)nc(C)n3-c2cccc(F)c2)cc1 | inactive: 8.41% |
| CC(NC(=O)c1ccc2c(c1)CCN2S(C)(=O)=O)c1ccccc1 (centres undefined) | inactive: 28.3% |
| Cc1c(Cl)cccc1NC(=O)c1cccc(NC(=O)N2CCSc3ncccc32)c1 | inactive: -1.57% |
| CCCCOc1ccc(-c2nn(-c3ccccc3)cc2C2NC(=O)NC(C)=C2C(=O)OCC)cc1 (centres undefined) | inactive: -8.92% |
| Cc1cc(C(F)(F)F)n2nc(-c3ccc(Br)cc3)cc2n1 | inactive: 5.08% |
| CCC(=O)N1CCc2cc(S(=O)(=O)NC(C(=O)NCCc3ccccc3)C(C)C)ccc21 (centres undefined) | inactive: -1.77% |
| Cc1cc(C)c(NC(=O)C(C)n2c(=O)c(C(F)(F)F)nc3ccccc32)c(C)c1 (centres undefined) | inactive: -4.55% |
| CCOC(=O)CC(NC(=O)CCc1c(C)nc2c(c(C)nn2-c2ccc(C)c(C)c2)c1C)c1ccc(C)cc1 (centres undefined) | inactive: -3.09% |
| Cc1cc(C)cc(OCC(=O)Nc2nc3c(s2)CC(C(C)(C)C)CC3)c1 (centres undefined) | inactive: 20.9% |
| Cc1cccc(-n2ncc(C(=O)N3CCN(C4CCCCC4)CC3)c2C2CCN(C(=O)OC(C)(C)C)CC2)c1 | inactive: -8.19% |
| COc1ccc(OC)c2sc(NC(=O)c3ccc(S(=O)(=O)N4CCCC4)cc3)nc12 | inactive: -3.84% |
| COc1ccccc1-c1nc(SCC(=O)c2ccccc2)n[nH]1 | inactive: 15.8% |
| COc1cccc(CNC(=O)Cn2c(=O)ccc3cc(S(=O)(=O)N4CCC(C)CC4)ccc32)c1 | inactive: -0.536% |
| COc1ccc(-n2c3c(c(=O)[nH]c2=O)C(NC(=O)c2ccccc2Cl)(C(F)(F)F)C(=O)N3)cc1 (centres undefined) | inactive: 9.28% |
| CCN(c1cccc(C)c1)S(=O)(=O)c1ccc(N2CCCCS2(=O)=O)cc1 | inactive: 7.25% |

| Structure (SMILES) | activity change, negative = cytotoxicity |
| --- | --- |
| Cc1ccc(NC(=O)c2cc(S(=O)(=O)N(C)C3CCCCC3)ccc2F)cc1C | inactive: -2.93% |
| COc1ccccc1C(=O)Oc1c(Sc2ccccc2)c(C)nn1C(C)(C)C | inactive: -20.7% |
| COc1ccc(CNc2nc(SCc3ccc(Cl)cc3)nc3ccccc23)cc1 | inactive: -4.5% |
| COc1ccc2[nH]c(=O)c(CN(C(=O)c3cccc(Cl)c3)c3ccccc3C)cc2c1 | inactive: -25% |
| CCOc1ccc(C(=O)c2cn(CC(=O)Nc3ccc(OC)cc3)c3cc4c(cc3c2=O)OCCO4)cc1 | inactive: 19.6% |
| C#CCn1c(C2CC(=O)N(c3ccc(OC)cc3)C2)nc2ccccc21 (centres undefined) | inactive: -1.81% |
| CC(C)CCn1c(=O)c2cccnc2n(CC(=O)Nc2ccc(F)cc2)c1=O | inactive: -4.44% |
| Cc1cc2nnc(SCc3ccc(F)cc3)n2c2ccccc12 | inactive: 9.91% |
| CC1CN(c2ccc(Cl)cc2)c2nc3c(c(=O)n(CC(=O)O)c(=O)n3C)n2C1 (centres undefined) | inactive: -1.94% |
| COc1ccc2occ(CC(=O)Nc3ccc(S(=O)(=O)Nc4nccc(C)n4)cc3)c2c1 | inactive: 9.28% |
| Cc1ccc(CNC(=O)c2sc3nc[nH]c(=O)c3c2C)cc1 | inactive: -3.01% |
| COc1ccc(OCC(=O)Nc2nnc(S(=O)(=O)N3CCc4ccccc43)s2)cc1 | inactive: -3.58% |
| Cc1cccc(C)c1Nc1c(-c2ccccc2F)nc2cccc(C)n12 | inactive: -0.173% |
| CCOC(=O)c1ccccc1NC(=O)C1CCN(c2ncnc3c2nc2n3CCCCC2)CC1 | inactive: 0.681% |
| CCCCN(CC)CCNC(=O)c1c(C)oc2ncnc(N3CCOCC3)c12 | inactive: -6.83% |
| COC(=O)c1ccccc1NC(=O)C1=CC(c2ccc(C)cc2)=NS(=O)(=O)N1C | inactive: -9.99% |
| Cc1cc(C)cc(NC(=O)CN(c2cc(C(F)(F)F)ccc2Cl)S(=O)(=O)c2ccccc2)c1 | inactive: 1.27% |
| O=C(CN1CCN(Cc2ccc(F)cc2)C1=O)NCc1ccccc1Cl | inactive: 6.02% |
| COc1cccc(-c2nn(C)c3sc(C(=O)NCc4cc(OC)ccc4OC)cc23)c1 | inactive: -18.7% |
| COc1ccc(OC)c(NC(=O)c2cc3c(n(-c4ccc(Cl)cc4)c2=O)CC(C)(C)CC3=O)c1 | inactive: -0.777% |
| COc1ccccc1NC(c1ccc(Cl)cc1)c1nnc(-c2cccc(F)c2)o1 (centres undefined) | inactive: -7.21% |
| CC(=O)c1ccc(NC(=O)CCc2c(C)nc3c(c(C)nn3-c3ccc(C)cc3)c2C)cc1 | inactive: -21.9% |
| O=C(COc1ccccc1Cl)Nc1cc(-c2ccccc2F)nn1-c1ccccc1 | inactive: 31.2% |
| CNS(=O)(=O)c1cn(CC(=O)N2CCN(c3ccccc3F)CC2)cc1S(=O)(=O)NC | inactive: 2.94% |

| Structure (SMILES) | activity change, negative = cytotoxicity |
| --- | --- |
| CCc1ccc(OC(C)c2nc(-c3ccc(-n4cccc4)cc3)no2)cc1 (centres undefined) | inactive: 0.985% |
| Cc1ccc(CN(Cc2ccco2)C(=O)COc2ccccc2C)cc1 | inactive: -10.7% |
| CCOC(=O)c1ccc(NC(=O)CCc2c(C)nc3c(c(C)nn3-c3ccccc3)c2C)cc1 | inactive: 2.21% |
| O=S(=O)(NCc1csc(-c2ccccc2)n1)c1cccc(F)c1 | inactive: 5.61% |
| Cc1oc2ccc(O)c(CN(C)Cc3ccccc3)c2c1C(=O)Nc1ccccc1 | inactive: -5.73% |
| O=C(CCc1cn(Cc2ccc(F)cc2)c2ccccc12)NCCc1ccc(Cl)cc1 | inactive: 1.96% |
| CC(=O)N1CCOc2cc(S(=O)(=O)NC(C)c3ccccc3)c(Cl)cc21 (centres undefined) | inactive: 8.21% |
| Cc1cccc(C(=O)Nc2sc3c(c2C(=O)N2CCCCC2)CCC(C)C3)c1 (centres undefined) | inactive: -19.2% |
| COc1cccc(NC(=O)CSc2nc3ccc(NC(=O)c4cccs4)cc3s2)c1 | inactive: 25.5% |
| Cc1ccc(NC(=O)Nc2nnc(N3CCCC3)s2)cc1 | inactive: 15.5% |
| CCOC(=O)c1c(NC(=O)/C=C/c2ccc(C(C)C)cc2)sc2c1CCC2 | inactive: 11.2% |
| Cn1cnc(S(=O)(=O)N2CCC(C(=O)NCc3ccccc3Cl)CC2)c1 | inactive: -0.142% |
| CCN(c1ccccc1)c1nnc(NC(=O)Nc2ccc(Br)cc2)s1 | inactive: 6.26% |
| COc1ccc(NC(=O)Nc2nnc(C)s2)cc1 | inactive: 10.1% |
| Cc1ccccc1C(=O)Nc1ccc(OCc2cc(=O)n3cccc(C)c3n2)cc1 | inactive: 6.85% |
| CC1=C(c2ccc(C)c(C)c2)S(=O)(=O)N=C1N1CCC(C(=O)N2CCC(C(N)=O)CC2)CC1 | inactive: 2.58% |
| O=C1COc2cc(S(=O)(=O)NCc3ccco3)c(Cl)cc2N1 | inactive: 4.69% |
| O=c1c2oc3ccccc3c2n(Cc2ccc(Cl)cc2)c(=O)n1Cc1ccco1 | inactive: -17.3% |
| CCc1ccccc1N(CC)C(=O)c1c(C)oc2ncnc(N3CCOCC3)c12 | inactive: 8.39% |
| CCOC(=O)C1CCN(c2nc3c(S(=O)(=O)c4ccccc4)nnn3c3ccsc23)CC1 | inactive: 11.2% |
| Cc1cccc(CN2CCC(CNC(=O)c3c(C)oc4ncnc(N5CCCCC5)c34)CC2)c1 | inactive: 17.7% |
| CCN(C(=O)C1CCC(CNS(=O)(=O)c2cccc3nsnc23)CC1)c1ccc(C)c(C)c1 (centres undefined) | inactive: -28.5% |
| CC(Sc1nc(=O)cc(N)n1CCc1ccccc1)C(=O)Nc1ccc(Cl)cc1 (centres undefined) | inactive: -28.9% |
| CN(C(=O)c1cc2nc(-c3ccco3)cc(C(F)(F)F)n2n1)c1ccc(OC(F)(F)Cl)cc1 | inactive: 2.15% |

| Structure (SMILES) | activity change, negative = cytotoxicity |
| --- | --- |
| CCn1c(=O)sc2cc(NS(=O)(=O)c3ccc(F)c(C)c3)ccc21 | inactive: -15.3% |
| Cc1ccc(CSc2cn(CC(=O)N3CCCC3)c3ccccc23)cc1 | inactive: -3.14% |
| O=C(CCS(=O)(=O)c1cc(Br)cc2c1N(C(=O)C1CC1)CC2)NCc1ccc(Cl)cc1 | inactive: -0.74% |
| O=C(Nc1cc(-c2nc3ccccc3o2)ccc1Cl)c1ccc(N2CCCCC2)c([N+](=O)[O-])c1 | inactive: 8.52% |
| CCOC(=O)c1c(-c2ccc(Br)cc2)csc1NC(=O)c1ccc(F)cc1 | inactive: -0.884% |
| COC(=O)c1ccccc1NC(=O)CSc1nc2ccccc2nc1Cc1ccccc1OC | inactive: 14.2% |
| COc1ccc(C2c3c(n(C)c4ccccc34)C(=O)N2CC(=O)Nc2ccc(C)c(Cl)c2)cc1 (centres undefined) | inactive: 2.59% |
| Cc1ccc(-c2nc(SCCOc3ccccc3C)n3[nH]c(=O)cc3n2)cc1 | inactive: 19.4% |
| Cc1ccc(NC(=O)Cn2cc(S(=O)(=O)c3ccc(C)cc3)c(=O)c3cc4c(cc32)OCO4)cc1 | inactive: 5.87% |
| COc1ccc(C2CC(=O)c3cc(-c4nc(-c5ccc(Cl)cc5)c(C)s4)c(=O)[nH]c3C2)cc1 (centres undefined) | inactive: -1.17% |
| CCc1nnc(SCc2cc(C)ccc2C)c2cc3sc(C)cc3n12 | inactive: -9.82% |
| COc1ccc(NC(=O)C(C)n2nc(-c3ccc(C)c(C)c3)ccc2=O)cc1OC (centres undefined) | inactive: -0.497% |
| CCOC(=O)c1c(C)[nH]c(C)c1S(=O)(=O)N1CCC(C(=O)N2CCN(c3ccccc3F)CC2)CC1 | inactive: 3.31% |
| COc1cccc(NC(=O)CSC2=Nc3ccccc3C3=NC(CC(=O)NC4CCCCC4)C(=O)N23)c1 (centres undefined) | inactive: -5.85% |
| CC(=O)c1ccc(N2CCN(c3ccc(NC(=O)c4ccc(F)cc4)cc3C(=O)O)CC2)cc1 | inactive: -16.9% |
| Cc1cc(C)c2c(=O)cc(C(=O)Nc3ccccc3C(F)(F)F)oc2c1 | inactive: 4.08% |
| CCc1ccc(CNC(=O)c2ccc(NC(=O)N3CC(C)Sc4ccccc43)cc2)cc1 (centres undefined) | inactive: -0.633% |
| O=S(=O)(Nc1nc2n(n1)C(c1ccc(F)cc1)C=C(c1ccccc1)N2)c1ccccc1 (centres undefined) | inactive: 5.05% |
| COc1ccc(CNC(=O)c2ccc(N3CCCC3)c(NC(=O)NCc3ccc(C)cc3)c2)cc1 | inactive: -2.36% |
| Cc1nn2c(-c3cccc(NC(=O)c4ccccc4)c3)nnc2c2ccccc12 | inactive: 9.36% |
| CCOC(=O)c1c(C)oc2ccc(N(C(=O)Oc3ccccc3)S(=O)(=O)c3ccc(CC)cc3)cc12 | inactive: -1.64% |
| CC(C)c1ccc(OCC(=O)NC(Cc2c[nH]c3ccccc23)C(=O)O)cc1 (centres undefined) | inactive: 6.68% |
